According to the RNAGym collection of RNA variant scans (doi:10.7554/elife.90254):
Read counts are not given, so values of variants with three or more changes are uncertain.

B1: LINE1-full (parent)
chain: UACGUAGGUGGUUUUCCCCUGAUAGUGCUAAGGGGGCCUGGAAGUUUGGACUGGGCAGAGCUCAACACAGCGUGGCAAAGUGGCUGUGGCUAGACUGCCUCUCUGGAUUCCUCGUCACUCAGCAGGGCAUCUCUGAGAGAAAUGCC

Variants of: B1
Test: self-cleavage, relative activity (ratio to wild type); higher = more cleavage; in vitro, sequencing; the parent is a self-cleaving ribozyme

| Variant | self-cleavage |
| --- | --- |
| UACGUAGGUGGUUUUCCCCUGAUAGUGCUAAGGGGGCCUGGAAGUCUGGACUGGGCAGAGCUCAACACAGCGUGGCAAAGUGGCUGUGGCUAGACUGCCUCUCUGGAUUCCUCGUCACUCGGCAGGGCAUCUCUGGGAGAAAUGCC [U46C A121G A136G] | 2.22 |
| UACGUAGGUGGUUUUCCCCUGAUAGUGCUAAGGGGGCCUGGAAGUCUGGACUGGGCAGAGCUCAACACAGCGUGGCAAAGUGGCUGUGGCUAGACUGCCUCUCUGGAUUCCUCGUCACUCUGCAGGGCAUCACUGAGAGAAAUGCC [U46C A121U U132A] | 1.65 |
| UACGUAGGUGGUUUUCCCCUGAUAGUGCUAAGGGGGCCUGGAAGUCUGGACUGGGCAGAGCUCAACACAGCGUGGCAAAGUGGCUGUGGCUAGACUGCCUCUCUGGAUUCCUCGUCACUCAGCAGGGCUCCUCUGAGAGAAAUGCC [U46C A129U U130C] | 1.34 |
| UACGUAGGUGGUUUUCCCCUGAUAGUGCUAAGGGGGCCUGGAAGUCUGGACUGGGAAGAGCUCAACACAGCGUGGCAAAGUGGCUGUGGCCAGACUGCCCCUCUGGAUUCCUCGCCACUCAGCAGGGCAUCUCUGAGAGAAAUGCC [U46C C56A U91C U100C U115C] | 0.17 |
| UACGUAGGUGGUUUUCCCCUGAUAGUGCUAAGGGGGCCUGGAAGUCUGGACUGGGUAGAGCUCAGCACAGCGUGGCAAGGUGGCUGUGGCUAGACUGCCUCUCUGGAUUCCUCGUCACUCAGCAGGGCACCUCUGAGAGAAAUGCC [U46C C56U A65G A79G U130C] | 0.03 |
| UACGUAGGUGGUUUUCCCCUGAUAGUGCUAAGGGGGCCUGGAAGUCUGGACUGGGUAGAGCUCAACACAGCGUGGCAAAGAGGCUGUGGCUAGACCGCCUCUCUGGAUUCCUCGUCACUCAGCAGGGCAUCUCUGAGAGAAAUGCC [U46C C56U U81A U96C] | 0.03 |
| UACGUAGGUGGUUUUCCCCUGAUAGUGCUAAGGGGGCCUGGAAGUCUGGACUGGGCAGAGAUCAACACAGCGUGGCAAAGUGGCUGUGGCUAGACUGCCUCUCUGGACUCCUCGUCACUCAGCAGGGCAUCUCUGAGAGAAAUGCC [U46C C61A U108C] | 0.05 |
| UACGUAGGUGGUUUUCCCCUGAUAGUGCUAAGGGGGCCUGGAAGUCUGGACUGGGCAGAGCUUAACACAGCGCGACAAAGUGGCUGUGGCUAGACGGCCUCUCUGGAUUCCUCGUCACUCAGCAGGGCAUCUCUGAGAGAAAUGCC [U46C C63U U73C G75A U96G] | 0.02 |
| UACGUAGGUGGUUUUCCCCUGAUAGUGCUAAGGGGGCCUGGAAGUCUGGACUGGGCAGAGCUCAACACAGUGUGGCAAAGUGGCUGUGGCUAGACUGCCUCUCUGGAUUCCUCGUCACUCAGCAGGGCAUCUCUGAGAGAAGUGCC [U46C C71U A142G] | 1.16 |
| UACGUAGGUGGUUUUCCCCUGAUAGUGCUAAGGGGGCCUGGAAGUCUGGACUGGGCAGAGCUCAACACAGCGUGGCAAAGUGGGUGUGGCUAGACAGCCUCUCUGGAUUCCUCGUCACUCAGCAGGGCAUCUCUGAGAGAAAUGCC [U46C C84G U96A] | 0.09 |
| UACGUAGGUGGUUUUCCCCUGAUAGUGCUAAGGGGGCCUGGAAGUCUGGACUAGGCAGAGCUCAACACAGCGUGGCAAAGUGGCUGUGGCUAGACUGCCCCUCUGGAUUCCUCGUCACUCAGCAGGGCAUCACUGAGAGAAAUGCC [U46C G53A U100C U132A] | 1.21 |
| UACGUAGGUGGUUUUCCCCUGAUAGUGCUAAGGGGGCCUGGAAGUCUGGACUGGCCAGAGCUCAACACAGCGUGGCAAAGUGGCUGUGGCUAGACUGCCUCUCUGGAUUCCUCGUCACUCGGCAGGGCAUCUCUGAGAGGAAUGCC [U46C G55C A121G A140G] | 0.42 |
| UACGUAGGUGGUUUUCCCCUGAUAGUGCUAAGGGGGCCUGGAAGUCUGGACUGGGCAGAACUCAACACAGCGUGGCAAAGUGGCUGUGGCUGGACAGCCUCUCUGGAUUCCUCGUCACUCAGCAGGGCAUCUCUGAGAGAAAUGCC [U46C G60A A92G U96A] | 0.04 |
| UACGUAGGUGGUUUUCCCCUGAUAGUGCUAAGGGGGCCUGGAAGUCUGGACUGGGCAGAGCUCAACACAGCGUAGCAAAGUGGCUGUGGCUAGACCGCCUCUCUGGAUUCCUCGUCACUCAGCAGGGCAUCUCUGAGAGGAAUGCC [U46C G74A U96C A140G] | 0.12 |
| UACGUAGGUGGUUUUCCCCUGAUAGUGCUAAGGGGGCCUGGAAGUCAGGACUGGGCAGGGCUCAACACAGCGUGGCAAAGUGGCUGUGGCUAGACUGCCUCUCUGGAUUCCUCGUCACUCAGCAGGGCAUCUCUGAGAGAAAUGCC [U46C U47A A59G] | 0.11 |
| UACGUAGGUGGUUUUCCCCUGAUAGUGCUAAGGGGGCCUGGAAGUCAGGACUGGGCAGAGCUCAACACAGCGUGGCAAGGUGGCUGUGGCUAGACUGCCUCUCUGGAUUCCUCGUCACUCAGCAGGGCAUCUCUGAGAGAAAUGCC [U46C U47A A79G] | 0 |
| UACGUAGGUGGUUUUCCCCUGAUAGUGCUAAGGGGGCCUGGAAGUCAGGACUGGGCAGAGCUCAACACAGCGUGGCAAAGUGGCUGUGGCUAGACUGCCCCUCUGGAUUCCUCGUCACUCAGCAGGGCAUCUCUGAGAGAAAUGCC [U46C U47A U100C] | 1.23 |
| UACGUAGGUGGUUUUCCCCUGAUAGUGCUAAGGGGGCCUGGAAGUCCGGACUGGGCAGAGCUCAGCACAGCGUGGCAAAGUGGCUGUGGCUAGACUGCCUCUCUGGAUUCCUCGUCACUCAGCAGGGCAUCUCUGAGAGAAAUGCC [U46C U47C A65G] | 0 |
| UACGUAGGUGGUUUUCCCCUGAUAGUGCUAAGGGGGCCUGGAAGUCCGGACUGGGCAGAGCUCAACACAGCGUGGCGAAGUGGCUGUGGCUAGACUGCCUCUCUGGAUUCCUCGUCACUCAGCAGGGCAUCUCUGAGAGAAAUGAC [U46C U47C A77G C145A] | 2.53 |
| UACGUAGGUGGUUUUCCCCUGAUAGUGCUAAGGGGGCCUGGAAGUCCGGACUGGGCAGAGCUCAACACAGCGUGGCAAAGUGGCUGUGGCUAGACUGCCUUUCUGGAUUCCUCGUCACUCAGCAGGGCAUCUCUGAGAGAAAUGCC [U46C U47C C101U] | 0.47 |

| Variant | self-cleavage |
| --- | --- |
| UACGUAGGUGGUUUUCCCCUGAUAGUGCUAAGGGGGCCUGGAAGUCGGGACUGGGCAGAGCUCAACACAGCGUGGCAAAGUGGCUGUGGCUAGACUGCCUCUCUGGAUUCCUCGUCACUAAGCAGGGCAUCUCUGAGAGAAAUGCC [U46C U47G C120A] | 0 |
| UACGUAGGUGGUUUUCCCCUGAUAGUGCUAAGGGGGCCUGGAAGUCUGGACCGGGCAGAGCUCAACGCAGCGUGGCAAAGUGGCUGUGGCUAGACUGCCUCUCUGGAUUCCUCGUCACUCAGCAGGGCAUCUCUGAGAGAAAUGCC [U46C U52C A67G] | 1.31 |
| UACGUAGGUGGUUUUCCCCUGAUAGUGCUAAGGGGGCCUGGAAGUCUGGACUGGGCAGAGCACAACACAGCGUGGCAAAGUGGCUGUGGCUAGACUGCCUCUCUGGAUUCCUCGUCACUCAGCAGGGCAUCUCCGAGAGAAAUGCC [U46C U62A U134C] | 0.07 |
| UACGUAGGUGGUUUUCCCCUGAUAGUGCUAAGGGGGCCUGGAAGUCUGGACUGGGCAGAGCUCAACACAGCGAGGCAAAGUGGCUGUGGCUAGACUGCCUCUCUGGAUUCCUCGUCACUCAGCAUGGCAUCUCUGAGAGAAAUGCC [U46C U73A G125U] | 1.62 |
| UACGUAGGUGGUUUUCCCCUGAUAGUGCUAAGGGGGCCUGGAAGUCUGGACUGGGCAGAGCUCAACACAGCGCGGCAUAGUGGCUGUGGCUAGACUGCCACUCUGGAUUCCUCGUCCCUCAGCAGGGCAUCUCUGAGAGAAAUGCC [U46C U73C A78U U100A A117C] | 1.84 |
| UACGUAGGUGGUUUUCCCCUGAUAGUGCUAAGGGGGCCUGGAAGUCUGGACUGGGCAGAGCUCAACACAGCGCGGCAAAGUGGCUGUGGCCAGACUGCCUCUCUGGAUUCCUCGUCACUCAGCAGGGCAUCUCUGAUAGAAAUGCC [U46C U73C U91C G137U] | 1.67 |
| UACGUAGGUGGUUUUCCCCUGAUAGUGCUAAGGGGGCCUGGAAGUCUGGACUGGGCAGAGCUCAACACAGCGUGGCAAAGAGGCUGUGGCUAGACUGCCUCUCUGGAUUCCUCGUCACUCAGCAGGGCAUCUCUGAGGGAAAUGCC [U46C U81A A138G] | 3 |
| UACGUAGGUGGUUUUCCCCUGAUAGUGCUAAGGGGGCCUGGAAGUCUGGACUGGGCAGAGCUCAACACAGCGUGGCAAAGAGGCUGAGGCUAGACUGCCUCUCUGGAUUCCUCGUCACUCAGCAGGGCAUCUCUGAGAGAGAUGCC [U46C U81A U87A A141G] | 0.48 |
| UACGUAGGUGGUUUUCCCCUGAUAGUGCUAAGGGGGCCUGGAAGUCUGGACUGGGCAGAGCUCAACACAGCGUGGCAAAGAGGCUGUGGCUAGACUGCCUCUCUGGAUUCCCCGUCACUCAGCAGGGCAUCUCUGAGAGAAAUGCC [U46C U81A U112C] | 1.89 |
| UACGUAGGUGGUUUUCCCCUGAUAGUGCUAAGGGGGCCUGGAAGUCUGGACUGGGCAGAGCUCAACACAGCGUGGCAAAGCGGCUGUGGCUAGACUGCCUCUCUGGGUUCCUCGUCACUCAGCAGGGCAUCUCUGAGAGAAAUGCC [U46C U81C A107G] | 2.63 |
| UACGUAGGUGGUUUUCCCCUGAUAGUGCUAAGGGGGCCUGGAAGUCUGGACUGGGCAGAGCUCAACACAGCGUGGCAAAGCGGCUGUGGCUAGACUGCCUCUCUGGAUUCCUCGUCACUCAGCAGGGCACCUCUGAGAGAAAUGCC [U46C U81C U130C] | 1.53 |
| UACGUAGGUGGUUUUCCCCUGAUAGUGCUAAGGGGGCCUGGAAGUCUGGACUGGGCAGAGCUCAACACAGCGUGGCAAAGUGGCAGUGGCUAGACUGCCUCUCUGGAUUCCUCGUCACUCAGCAGGGCAUCUCUGAGGGAAAUGCC [U46C U85A A138G] | 0.25 |
| UACGUAGGUGGUUUUCCCCUGAUAGUGCUAAGGGGGCCUGGAAGUCUGGACUGGGCAGAGCUCAACACAGCGUGGCAAAGUGGCAGUGGCUAGACUGCCUCUCUGGAUUCCUCGUCACUCAGCAGGGCAUCACUGAGAGAAAUGCC [U46C U85A U132A] | 0.05 |
| UACGUAGGUGGUUUUCCCCUGAUAGUGCUAAGGGGGCCUGGAAGUCUGGACUGGGCAGAGCUCAACACAGCGUGGCAAAGUGGCCGUGGCUAGACUGCCUCUCUGGAUUCCUCGUCACUCAGCAGGGCAUCUCGGAGAGAAAUGCC [U46C U85C U134G] | 0.26 |
| UACGUAGGUGGUUUUCCCCUGAUAGUGCUAAGGGGGCCUGGAAGUCUGGACUGGGCAGAGCUCAACACAGCGUGGCAAAGUGGCUGAGGCUAGACUGCCUCUCUGGAUACCUCGUCACUCAGAAGGGCAUCUCUGAGAGAAAUGCC [U46C U87A U109A C123A] | 0.1 |
| UACGUAGGUGGUUUUCCCCUGAUAGUGCUAAGGGGGCCUGGAAGUCUGGACUGGGCAGAGCUCAACACAGCGUGGCAAAGUGGCUGUGGCCAGACUGCCUCUCUGGAUUCCUCGUCACUCAGCAGGGCAUCUCUGAGAGGAAUGCC [U46C U91C A140G] | 1.33 |
| UACGUAGGUGGUUUUCCCCUGAUAGUGCUAAGGGGGCCUGGAAGUCUGGACUGGGCAGAGCUCAACACAGCGUGGCAAAGUGGCUGUGGCUAGACAGCCUCUCUGGCUUCCUCGACACUCAGCAGGGCAUCUCUAAGAGAAAUGCC [U46C U96A A107C U115A G135A] | 0.11 |
| UACGUAGGUGGUUUUCCCCUGAUAGUGCUAAGGGGGCCUGGAAGUCUGGACUGGGCAGAGCUCAACACAGCGUGGCAAAGUGGCUGUGGCUAGACCGCCUCUCUGGAUUCCUCGUCACUCAGCAGGGCAUCUCUGAGAGAUAUGCC [U46C U96C A141U] | 0.11 |
| UACGUAGGUGGUUUUCCCCUGAUAGUGCUAAGGGGGCCUGGAAGUCUGGACUGGGCAGAGCUCAACACAGCGUGGCAAAGUGGCUGUGGCUAGACCGCCUCUAUGGAUUCCUCGUCACUCAGCGGGGCAUCUCUGAGAGAAAUGCC [U46C U96C C103A A124G] | 0.12 |
